Source: patent publication US20240384006A1 (Amgen, published 2024)
Numbering of substitutions follows the chain as printed. In names and notes the source's numbering stands.

How the values were obtained:
[1] = biological target: T1, human CD22 (human, UniProt P20273 20-847); assay: flow cytometry on CHO cells expressing human CD22, one site-specific binding fit, mean of three
T1 construct: whole, on cells; also called hu CD22
T1 sequence (looked up): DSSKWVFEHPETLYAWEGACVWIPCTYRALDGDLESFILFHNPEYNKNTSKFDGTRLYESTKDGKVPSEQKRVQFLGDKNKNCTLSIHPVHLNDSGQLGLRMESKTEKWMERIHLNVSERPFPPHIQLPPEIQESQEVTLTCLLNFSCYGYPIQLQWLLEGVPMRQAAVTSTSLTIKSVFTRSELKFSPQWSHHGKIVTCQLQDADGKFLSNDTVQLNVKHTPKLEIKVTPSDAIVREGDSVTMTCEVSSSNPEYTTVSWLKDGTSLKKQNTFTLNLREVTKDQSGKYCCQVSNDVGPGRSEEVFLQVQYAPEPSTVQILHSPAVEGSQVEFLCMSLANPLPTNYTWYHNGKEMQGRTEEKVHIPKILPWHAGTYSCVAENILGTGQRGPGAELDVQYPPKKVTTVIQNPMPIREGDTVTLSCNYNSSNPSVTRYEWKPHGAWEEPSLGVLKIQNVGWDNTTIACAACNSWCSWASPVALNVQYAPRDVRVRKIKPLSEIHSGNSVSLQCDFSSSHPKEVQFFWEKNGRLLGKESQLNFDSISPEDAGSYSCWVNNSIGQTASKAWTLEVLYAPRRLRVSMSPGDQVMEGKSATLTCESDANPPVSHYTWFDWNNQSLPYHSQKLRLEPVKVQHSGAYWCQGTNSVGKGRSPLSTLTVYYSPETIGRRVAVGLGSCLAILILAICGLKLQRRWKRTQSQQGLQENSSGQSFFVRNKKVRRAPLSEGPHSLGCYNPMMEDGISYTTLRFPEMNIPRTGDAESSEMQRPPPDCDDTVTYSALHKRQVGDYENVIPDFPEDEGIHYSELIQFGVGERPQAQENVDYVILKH
Method: (§1) Cell-based affinity of CD20 CD22 dual targeting antigen-binding molecules was determined by nonlinear regression (one site—specific binding) analysis. CHO cells expressing human CD20, cyno CD20, human CD22 or cyno CD22 were incubated with decreasing concentrations of CD20 CD22 dual targeting antigen-binding molecules (up to 800 nM, step 1:2 or 1:3, 11 steps) for 16 h at 4° C. Bound CD20 CD22 dual targeting antigen-binding molecules were detected with Alexa Fluor 488-conjugated AffiniPure Fab Fragment Goat Anti-Human IgG (H+L). Fixed cells were stained with DRAQ5, Far-Red Fluorescent Live-Cell Permeant DNA Dye and signals were detected by fluorescence cytometry. Respective equilibrium dissociation constant (Kd) values were calculated with the one site specific binding evaluation tool of the GraphPad Prism software. Mean Kd values and affinity gaps were calculated with Microsoft Excel.
(§2) Cell-based affinities of CD20 CD22 dual targeting antigen-binding molecules on target-transfected CHO cells were determined by nonlinear regression (one site—specific binding) analysis. Mean Kd values were calculated from three independent measurements. Affinity gaps were determined by dividing the cyno Kd by the human Kd.

[2] = biological target: T2, cyno CD20 (cyno, UniProt M4ZHZ6 1-297); assay: cyno Kd divided by human Kd, cell-based affinity on CHO cells
T2 construct: whole, on cells; also called cy CD20
T2 sequence: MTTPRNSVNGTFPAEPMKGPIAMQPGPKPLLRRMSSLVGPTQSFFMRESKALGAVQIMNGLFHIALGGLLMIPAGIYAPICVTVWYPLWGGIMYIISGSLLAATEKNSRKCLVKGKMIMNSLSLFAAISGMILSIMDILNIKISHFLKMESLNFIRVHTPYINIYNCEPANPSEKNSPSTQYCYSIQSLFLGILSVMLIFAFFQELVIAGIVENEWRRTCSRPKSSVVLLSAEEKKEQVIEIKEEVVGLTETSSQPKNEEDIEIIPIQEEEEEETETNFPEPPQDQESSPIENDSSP
Method: as §1, §2

[3] = biological target: T3, cyno CD22 (cyno); assay: as above
T3 construct: whole, on cells; also called cy CD22
Method: as §1, §2

[4] = biological target: T1, human CD22; assay: cell-based or functional assay
[5] = biological target: T4, human CD20 (human, UniProt P11836 1-297); assay: cell-based or functional assay
T4 sequence (looked up): T2 sequence with P25S, L31F, A51T, V157A, R217K, S226N, V227I, V239T

[6] = biological target: T4, human CD20; assay: flow cytometry on CHO cells expressing human CD20, one site-specific binding fit, mean of three
Method: as §1, §2

[7] = biological target: T2, cyno CD20; assay: flow cytometry on CHO cells expressing cyno CD20, one site-specific binding fit, mean of three
Method: as §1, §2

[8] = biological target: T3, cyno CD22; assay: flow cytometry on CHO cells expressing cyno CD22, one site-specific binding fit, mean of three
Method: as §1, §2

B1: CD20 82-A3 CC × CD22 43-F7 CC × I2E × scFc (Z7Q) (bispecific antibody)
chain: EVQLVESGGGLVQPDRSLRLSCAASGFTFRDYAMHWVRQAPGKCLEWVSGIAWNSDSIGYADSVKGRFTISRDNAKNSLFLQMHSLRPEDTALYFCAKDTLYGSGSPRAFDIWGQGTMVTVSSGGGGSGGGGSGGGGSEIVLTQSPATLSVSPGERATLSCRASQSVNNNLAWYQQKPGQAPRLLIYGASTRATGIPARFSGSGSGTEFTLTISRLEPEDFAVYYCQQSNNWPITFGCGTRLEIKSGGGGSQVQLVQSGGEVKKPGASVKVSCKASGYTFTSYGISWVRQAPGQCLEWMGWISPQTGNAIYAQKLQGRVTMTRDTSTSTAYMELRSLRSDDTAVYYCARDPDYYGSGSYSDYWGQGTLVTVSSGGGGSGGGGSGGGGSEIVLTQSPATLSVSPGERATLSCRASQSVSSNLAWYQQKPGQAPRLLIYGASSRATGIPARFSGSGSGTEFTLTISSLQSEDFAVYYCQQYHSWPLLTFGCGTKVEIKSGGGGSEVQLVESGGGLVQPGGSLKLSCAASGFTFNKYAINWVRQAPGKGLEWVARIRSKYNNYATYYADAVKDRFTISRDDSKNTVYLQMNNLKTEDTAVYYCARAGNFGSSYISYWAYWGQGTLVTVSSGGGGSGGGGSGGGGSQTVVTQEPSLTVSPGGTVTIT[in this place about 80 residues]FGSGTKLTVLGGGG[in this place human IgG1 Fc with R292C N297G V302C (EU numbers)]GGGGSGGGGSGGGGSGGGGSGGGGSGGGGS[in this place human IgG1 Fc with R292C N297G V302C (EU numbers)]
notes: Single chain: anti-CD20 scFv, anti-CD22 scFv, anti-CD3 scFv (I2E), scFc; also called 35181-1
Kd [1]: 0.33 nM
Affinity gap Kdcy/Kdhu CD20 [2]: 1.49
Affinity gap Kdcy/Kdhu CD22 [3]: 10.3
EC50, 48-hour FACS based cytotoxicity assay, Oci-Ly 1 CD20 k.o. #A5 [4]: 0.011 nM
EC50, 48-hour FACS based cytotoxicity assay, Oci-Ly 1 CD22 k.o. #A1 [5]: 0.00023 nM
Kd [6]: 1.4 nM
Kd [7]: 2.08 nM
Kd [8]: 3.39 nM

B2: CD20 82-A3 CC × CD22 44-A8 CC × I2E × scFc (J1E) (bispecific antibody)
chain: EVQLVESGGGLVQPDRSLRLSCAASGFTFRDYAMHWVRQAPGKCLEWVSGIAWNSDSIGYADSVKGRFTISRDNAKNSLFLQMHSLRPEDTALYFCAKDTLYGSGSPRAFDIWGQGTMVTVSSGGGGSGGGGSGGGGSEIVLTQSPATLSVSPGERATLSCRASQSVNNNLAWYQQKPGQAPRLLIYGASTRATGIPARFSGSGSGTEFTLTISRLEPEDFAVYYCQQSNNWPITFGCGTRLEIKSGGGGSQVQLVQSGAEVKKPGASVKVSCKASGYTFTSYGISWVRQAPGQCLEWMGWISAYNGNAIYAQKLQGRVTMTRDTSTSTAYMELRSLRSDDTAVYYCARDPDYYGSGSYSDYWGQGTLVTVSSGGGGSGGGGSGGGGSEIVLTQSPATLSVSPGERATLSCRASQSVSSNLAWYQQKPGQAPRLLIYGASSRATGIPARFSGSGSGTEFTLTISSLQSEDFAVYYCQQYHSWPILHFGCGTKVEIKSGGGGSEVQLVESGGGLVQPGGSLKLSCAASGFTFNKYAINWVRQAPGKGLEWVARIRSKYNNYATYYADAVKDRFTISRDDSKNTVYLQMNNLKTEDTAVYYCARAGNFGSSYISYWAYWGQGTLVTVSSGGGGSGGGGSGGGGSQTVVTQEPSLTVSPGGTVTIT[in this place about 80 residues]FGSGTKLTVLGGGG[in this place human IgG1 Fc with R292C N297G V302C (EU numbers)]GGGGSGGGGSGGGGSGGGGSGGGGSGGGGS[in this place human IgG1 Fc with R292C N297G V302C (EU numbers)]
notes: Single chain: anti-CD20 scFv, anti-CD22 scFv, anti-CD3 scFv (I2E), scFc
Kd [1]: 0.16 nM
Affinity gap Kdcy/Kdhu CD20 [2]: 1.22
Affinity gap Kdcy/Kdhu CD22 [3]: 17.2
EC50, 48-hour FACS based cytotoxicity assay, Oci-Ly 1 CD20 k.o. #A5 [4]: 0.0055 nM
EC50, 48-hour FACS based cytotoxicity assay, Oci-Ly 1 CD22 k.o. #A1 [5]: 0.00022 nM
Kd [6]: 0.85 nM
Kd [7]: 1.04 nM
Kd [8]: 2.75 nM

B3: CD20 82-G2 CC × CD22 44-A8 CC × I2E × scFc (J9A) (bispecific antibody)
chain: EVQLVESGGGLVQPGRSLRLSCAASGFTFHDYTMHWVRQAPGKCLEWVSGISWNTGTIGYADSVKGRFTISRDNAKNSLYLQMNSLRAEDTALYYCVKDAFYGGDYYYNYGMDVWGHGTTVTVSSGGGGSGGGGSGGGGSEIVLTQSPATLSVSPGERATLSCRASQSVNNNLAWYQQKPGQAPRLLIYGASTRATGIPARFSGSGSGTDFTLTISSLQSDDFAVYYCQQYNNWPLTFGCGTKVEIKSGGGGSQVQLVQSGAEVKKPGASVKVSCKASGYTFTSYGISWVRQAPGQCLEWMGWISAYNGNAIYAQKLQGRVTMTRDTSTSTAYMELRSLRSDDTAVYYCARDPDYYGSGSYSDYWGQGTLVTVSSGGGGSGGGGSGGGGSEIVLTQSPATLSVSPGERATLSCRASQSVSSNLAWYQQKPGQAPRLLIYGASSRATGIPARFSGSGSGTEFTLTISSLQSEDFAVYYCQQYHSWPILHFGCGTKVEIKSGGGGSEVQLVESGGGLVQPGGSLKLSCAASGFTFNKYAINWVRQAPGKGLEWVARIRSKYNNYATYYADAVKDRFTISRDDSKNTVYLQMNNLKTEDTAVYYCARAGNFGSSYISYWAYWGQGTLVTVSSGGGGSGGGGSGGGGSQTVVTQEPSLTVSPGGTVTIT[in this place about 80 residues]FGSGTKLTVLGGGG[in this place human IgG1 Fc with R292C N297G V302C (EU numbers)]GGGGSGGGGSGGGGSGGGGSGGGGSGGGGS[in this place human IgG1 Fc with R292C N297G V302C (EU numbers)]
notes: as for B2
Kd [1]: 0.1 nM
Affinity gap Kdcy/Kdhu CD20 [2]: 1.15
Affinity gap Kdcy/Kdhu CD22 [3]: 14.2
EC50, 48-hour FACS based cytotoxicity assay, Oci-Ly 1 CD20 k.o. #A5 [4]: 0.00927 nM
EC50, 48-hour FACS based cytotoxicity assay, Oci-Ly 1 CD22 k.o. #A1 [5]: 0.0183 nM
Kd [6]: 22.5 nM
Kd [7]: 25.9 nM
Kd [8]: 1.42 nM

B4: CD20 82-A3 CC × CD22 53-D6 CC × I2E × scFc (O3S) (bispecific antibody)
chain: EVQLVESGGGLVQPDRSLRLSCAASGFTFRDYAMHWVRQAPGKCLEWVSGIAWNSDSIGYADSVKGRFTISRDNAKNSLFLQMHSLRPEDTALYFCAKDTLYGSGSPRAFDIWGQGTMVTVSSGGGGSGGGGSGGGGSEIVLTQSPATLSVSPGERATLSCRASQSVNNNLAWYQQKPGQAPRLLIYGASTRATGIPARFSGSGSGTEFTLTISRLEPEDFAVYYCQQSNNWPITFGCGTRLEIKSGGGGSQVQLVQSGAEVKKPGASVKVSCKASGYSFTSYGITWVRQAPGQCLEWMGWISAYNGNTIYAQKLQGRVTMTTDTSTSTAYMELRSLRSDDTAVYYCVRDSNHEDFWGQGTLVTVSSGGGGSGGGGSGGGGSEIVLTQSPATLSVSPGERATLSCRASQSVSSNLAWYQQKPGQAPRLLIYGASTRATGIPARFSGSGSGTEFTLTISSLQSEDFAVYYCQQYHTWPPVTFGCGTKVEIKSGGGGSEVQLVESGGGLVQPGGSLKLSCAASGFTFNKYAINWVRQAPGKGLEWVARIRSKYNNYATYYADAVKDRFTISRDDSKNTVYLQMNNLKTEDTAVYYCARAGNFGSSYISYWAYWGQGTLVTVSSGGGGSGGGGSGGGGSQTVVTQEPSLTVSPGGTVTIT[in this place about 80 residues]FGSGTKLTVLGGGG[in this place human IgG1 Fc with R292C N297G V302C (EU numbers)]GGGGSGGGGSGGGGSGGGGSGGGGSGGGGS[in this place human IgG1 Fc with R292C N297G V302C (EU numbers)]
notes: as for B2
Kd [1]: 0.36 nM
Affinity gap Kdcy/Kdhu CD20 [2]: 0.94
Affinity gap Kdcy/Kdhu CD22 [3]: 8.22
EC50, 48-hour FACS based cytotoxicity assay, Oci-Ly 1 CD20 k.o. #A5 [4]: 0.00679 nM
EC50, 48-hour FACS based cytotoxicity assay, Oci-Ly 1 CD22 k.o. #A1 [5]: 0.00027 nM
Kd [6]: 1.39 nM
Kd [7]: 1.3 nM
Kd [8]: 2.96 nM
